Reference: PubChem BioAssay AID488969 (Vanderbilt High Throughput Screening Facility, 2010)
In all, about 110,000 compounds were measured (“z-score”: median about -0.1, highest 2% from about 2 on). This is one part of the list. The source made the active and inactive calls.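 The calls were made as follows: active = z-score in the third read window above 3 or below -3; inactive = the rest.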

Target: Metabotropic glutamate receptor 8 (Rattus norvegicus) (UniProt P70579)
Experiment: rat mGluR8 modulators via GIRK flux, primary screen, cell-based, thallium flux, HTS (AID 488969)
Settings: HEK293 rat mGluR8, GIRK (G protein-gated inwardly rectifying potassium channel) thallium flux, FluoZin2; at 10 µM; stronger effect = higher value; submaximal glutamate (EC20) added with thallium

Chain of UniProt P70579 (P70579 whole entry, looked up): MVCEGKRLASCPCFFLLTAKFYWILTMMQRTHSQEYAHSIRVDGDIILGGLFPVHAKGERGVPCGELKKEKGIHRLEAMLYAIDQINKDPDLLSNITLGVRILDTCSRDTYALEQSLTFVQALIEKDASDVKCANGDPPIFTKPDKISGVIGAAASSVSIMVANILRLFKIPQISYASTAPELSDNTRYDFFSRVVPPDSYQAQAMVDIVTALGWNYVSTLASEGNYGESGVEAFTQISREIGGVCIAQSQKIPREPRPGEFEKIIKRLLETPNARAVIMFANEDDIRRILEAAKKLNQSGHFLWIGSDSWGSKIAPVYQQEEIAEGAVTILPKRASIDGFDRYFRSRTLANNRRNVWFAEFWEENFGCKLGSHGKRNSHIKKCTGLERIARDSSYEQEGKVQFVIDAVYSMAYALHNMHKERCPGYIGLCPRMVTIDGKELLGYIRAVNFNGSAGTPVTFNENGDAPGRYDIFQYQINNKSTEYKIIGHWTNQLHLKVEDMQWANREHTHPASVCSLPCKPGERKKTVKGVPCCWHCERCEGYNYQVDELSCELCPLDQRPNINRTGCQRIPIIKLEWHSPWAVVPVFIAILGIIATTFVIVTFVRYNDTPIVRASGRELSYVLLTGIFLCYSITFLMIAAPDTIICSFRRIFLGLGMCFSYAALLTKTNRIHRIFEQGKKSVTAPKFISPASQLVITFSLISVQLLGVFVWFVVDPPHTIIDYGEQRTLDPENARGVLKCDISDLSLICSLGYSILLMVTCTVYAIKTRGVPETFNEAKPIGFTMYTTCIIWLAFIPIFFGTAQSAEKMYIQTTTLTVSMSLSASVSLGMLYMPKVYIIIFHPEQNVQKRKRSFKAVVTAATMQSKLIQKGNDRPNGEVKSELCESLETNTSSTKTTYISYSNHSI

Row | SMILES | z-score
1 | COc1ccc(F)cc1S(=O)(=O)Nc1ccc2c(c1)OCO2 | -0.335
2 | COc1cccc(-c2csc(N3CCN(C(=S)Nc4ccccc4Cl)CC3)n2)c1 | -0.399
3 | Fc1ccc(CSc2nc3ncc(Br)cc3[nH]2)cc1 | -1.27
4 | COc1ccc(CNC(=O)Oc2ccccc2)cc1Cl | -0.525
5 | COc1ccc(C2C(C(=O)OC(C)C)=C(C)N=c3s/c(=C\c4cccs4)c(=O)n32)cc1 (stereo not drawn) | 1.04
6 | O=C(NCCc1c[nH]c2ccccc12)c1cc(S(=O)(=O)N2CCCCC2)ccc1N1CCOCC1 | -0.77
7 | CCC(=O)Nc1nc2ccccc2n1CCN(CC)CC | -0.0953
8 | CCOCc1nnc(NC(=O)c2cccs2)s1 | 0.125
9 | C=C(C)c1cccc(C(C)(C)NC(=O)N2CCC(C)CC2)c1 | -0.352
10 | CC1CCCC(C)N1C(=O)COC(=O)C(Cc1ccccc1)NC(=O)c1cccs1 (stereo not drawn) | -0.188
11 | O=C(c1ccc(-c2ccccc2)cc1)N1CCN(c2ncccn2)CC1 | active: 3.97
12 | CC(=O)c1ccc(N2Cc3ccccc3C2=NC(=O)c2cccs2)cc1 | -0.148
13 | CCOC(=O)C1CCN(CC(=O)Nc2c(C(=O)OC)[nH]c3ccc(Cl)cc23)CC1 | -1.02
14 | COc1ccc(-c2csc(Cc3nnc(N4CCOCC4)n3-c3ccccc3)n2)cc1OC | -0.0135
15 | Cc1sc2nc(SCC(=O)C(C)(C)C)n(Cc3ccco3)c(=O)c2c1C | -0.377
16 | CCc1c(C)nc(Nc2nc(C)c3ccc(OC)cc3n2)[nH]c1=O | -0.8
17 | CCCCCC(=O)Nc1nc(C)c(-c2csc(Nc3ccccc3OCC)n2)s1 | -0.324
18 | CCN1C(=O)c2cccc3c(S(=O)(=O)Nc4c(C)n(C)n(-c5ccccc5)c4=O)ccc1c23 | -1.35
19 | CC(C)C(=O)N1CCN(c2ccc(NC(=O)c3ccc(Br)o3)cc2)CC1 | -0.133
20 | C=C(Cl)COc1ccc2c(C)cc(=O)oc2c1 | 0.615
21 | COc1ccc(-n2c(Cc3cc(=O)[nH]c(=O)[nH]3)nnc2SCc2ccccc2)cc1 | 0.0314
22 | O=C(NC1CCCCCC1)c1cc(S(=O)(=O)N2CCC3(CC2)OCCO3)ccc1F | 0.381

Row | SMILES | z-score
23 | c1ccc(Oc2ncnc3oc(-c4ccccc4)cc23)cc1 | 0.0157
24 | O=C(OCc1ccc2c(c1)OCO2)c1ccc(S(=O)(=O)N2CCCC2)cc1 | 0.14
25 | COC(=O)Cn1cc(C(=O)OC)cc(Br)c1=O | -0.00723
26 | Cc1ccc(S(=O)(=O)/N=C(/Nc2nc(C)cc(C)n2)N2CCOCC2)cc1 | 0.338
27 | CCOC(=O)c1c(NC(=O)C(C)NCc2ccco2)sc2c1CCC(C)C2 (stereo not drawn) | -0.244
28 | CC(=O)Nc1ccc(S(=O)(=O)N2CCN(C)CC2)cc1 | -0.00534
29 | O=C(Nc1ccc(N2CCN(C(=O)c3ccco3)CC2)c(Cl)c1)c1cccs1 | -0.455
30 | CSc1nc2nc3c(c(=O)n2[nH]1)CCC3 | -0.258
31 | O=C(NC1CCCCC1)NC1CC2CCC(C1)N2C(=S)NCc1ccco1 (stereo not drawn) | -0.0389
32 | CCN1CCN(S(=O)(=O)c2ccc(S(=O)(=O)N(CC)Cc3ccccc3)cc2)CC1 | -0.171
33 | C=CC[N+](C)(C)CC(=O)OCc1ccccc1 | -0.186
34 | CCn1c(C)c(C(C)=O)c(N2CCN(c3ccccn3)CC2)nc1=S | 0.0199
35 | O=C(COC(=O)CCOc1ccccc1)Nc1ccc(Cl)cn1 | -0.197
36 | CCOC(=O)c1c(C)[nH]c(N=Nc2cccc(C)c2)c1C | 0.255
37 | CCOC(=O)Cc1c(C)c2c(O)cc(O)cc2oc1=O | -0.401
38 | CCOC(=O)C1=C(CSc2nc3c(cc2C#N)CN(C)CC3)OC(N)=C(C#N)C1c1ccccc1 (stereo not drawn) | 0.0291
39 | CS(=O)(=O)N(CC(N)=O)c1cccc(Br)c1 | 0.22
40 | Cc1csc(NC(=O)C(CC(C)C)NS(=O)(=O)c2ccc3c(c2)oc(=O)n3C)n1 (stereo not drawn) | 0.188
41 | O=C(c1cnn2c(C(F)F)cc(-c3ccccc3)nc12)N1CCSCC1 | -0.361
42 | CCCCCn1c(CN2CCN(c3cccc(Cl)c3)CC2)nc2c1c(=O)n(C)c(=O)n2C | -0.0719
43 | COc1cccc(/C=N\NC(=O)C2=NNC(=O)C2C)c1O (stereo not drawn) | -0.139
44 | Cc1ccc(-c2cc(C(=O)NCC3CCCO3)c3ccccc3n2)o1 (stereo not drawn) | -0.185

Row | SMILES | z-score
45 | Cc1cc(NC(=O)CSc2nc3c(c(-c4cccnc4)c2C#N)CCC3)no1 | 0.0942
46 | CCCCOc1ccc(C(=O)OC2CC(C)N(C)CC2C)cc1 (stereo not drawn) | active: 3.48
47 | C=C(C)CNC(=S)NNC(=O)c1ccc(Br)cc1 | 1.52
48 | CC(C)(C)c1ccc(S(=O)(=O)Nc2ccc(Cc3ccncc3)cc2)cc1 | 0.0193
49 | Cc1cccc(-n2cccc2)c1C#N | -0.306
50 | O=C(O)c1ccc(COc2ccc(/C=N/NC(=O)c3cccs3)cc2)cc1 | -0.656
51 | COc1ccc(NC(=O)CSc2nc(C)cc(C(F)(F)F)n2)cc1 | 0.108
52 | CCOC(=O)c1cnc2nc(NCc3ccc(OCc4ccccc4)cc3)[nH]n2c1=O | -0.297
53 | COc1ccc(CCN(Cc2nc3ccccc3c(=O)[nH]2)C(=O)c2ccco2)cc1 | 0.0149
54 | Cc1sc(-n2c(C)cc(C=O)c2C)c(C(=O)O)c1C | 0.137
55 | CCOC(=O)c1cnc(-n2nc(C)cc2C)nc1NCc1ccc2c(c1)OCO2 | 0.347
56 | Cc1cc(C(=O)Nc2ccccc2C#N)n(-c2ccccc2)n1 | 1.15
57 | Cc1ccc(S(=O)(=O)N2CCN(CC(=O)N/N=C\c3ccc(Cl)c([N+](=O)[O-])c3)CC2)cc1 | -0.0326
58 | COc1ccc(-c2nc3ccccc3c(=O)n2NC(=O)Cc2ccccc2)cc1 | 0.0968
59 | COc1ccc(-c2cc3ccccc3n2CC(O)CN2CCN(CCO)CC2)cc1 (stereo not drawn) | -0.753
60 | CCOC(=O)C1CCCN(CCC(=O)Nc2ccc(C)cc2)C1 (stereo not drawn) | 0.774
61 | O=c1c2c3nc4ccccc4nc3n(Cc3ccccc3)c2ncn1Cc1ccco1 | 0.0939
62 | CCOC(=O)c1sc(Nc2nc3c(F)cccc3s2)cc1C | 0.23
63 | CC(C)NC(=O)CC(=O)N/N=C/c1ccc(Br)cc1 | 0.688
64 | CS(=O)(=O)c1cc([N+](=O)[O-])c(Sc2nc3ccccc3[nH]2)c([N+](=O)[O-])c1 | -0.469
65 | Cc1cccc(-n2nc3c([n+]2[O-])CCc2nonc2-3)c1C | -0.912
66 | O=C(NCc1ccco1)c1cc2nc(C3CC3)cc(C(F)(F)F)n2n1 | -0.797

Row | SMILES | z-score
67 | Cc1ccc(NC(=O)c2c(C)nn(-c3ccccc3)c2Cl)cc1 | -0.247
68 | COC(=O)c1ccc(N2CCN(S(=O)(=O)c3ccc4ccccc4c3)CC2)c([N+](=O)[O-])c1 | -0.111
69 | CCn1c2ccccc2c2nnc(SCC(=O)N(C)C3CCS(=O)(=O)C3)nc21 (stereo not drawn) | -0.188
70 | CCOC(=O)C(/C=C(\C#N)C(=O)OCC)=C(/N)N1CCN(c2ccc(OC)cc2)CC1 | 0.803
71 | Cc1cc(NC(=O)c2cc(-c3ccco3)on2)no1 | 0.16
72 | CC(C)NS(=O)(=O)c1ccc(OCC(=O)NCc2ccccc2)cc1 | 0.622
73 | COC(=O)c1cc2c(-c3ccccc3)cc3ccccn3c-2c1C(=O)OC | 1.15
74 | O=C1c2ccccc2-c2nnc(-c3ccccc3)cc21 | 0.248
75 | O=C(NCC(c1cccnc1)N1CCN(c2ccc(F)cc2)CC1)c1ccc(F)cc1 (stereo not drawn) | 0.0352
76 | CSc1nc2ccc(S(=O)(=O)Nc3c(C)n(C)n(-c4ccccc4)c3=O)cc2s1 | -0.599
77 | CCOC(=O)Cn1c(=O)oc2cc(S(=O)(=O)N(C)Cc3ccco3)ccc21 | 0.193
78 | O=C(Nc1nc(-c2ccc(S(=O)(=O)N3CCCC3)cc2)cs1)C1COc2ccccc2O1 (stereo not drawn) | -0.431
79 | Cc1ccc2nc3c(cc2c1)CN(Cc1ccco1)C(=NCC1CCCO1)S3 (stereo not drawn) | 0.693
80 | CCOC(=O)N1CCN(C(=O)CN(c2ccc(OC)c(OC)c2)S(C)(=O)=O)CC1 | -0.034
81 | O=C1C2C3C=CC([C@@H]2C(=O)N1C1CCCCC1)[C@H]1C(=O)N(C2CCCCC2)C(=O)C31 (stereo partly drawn) | -0.00981
82 | CN(C)S(=O)(=O)N1CCN(Cc2ccccc2)CC1 | 0.117
83 | CC1CCCN(CCC(=O)c2ccc(Br)cc2)C1 (stereo not drawn) | -0.844
84 | O=C(Nc1cc2c(oc1=O)CCCC2=O)c1ccccc1 | -0.273
85 | Cc1cc(=O)n2[nH]c(-c3ccccc3Cl)cc2n1 | -0.0492
86 | Cc1cccc(NC(=S)NNC(=O)c2nn(C)cc2Cl)c1 | 0.00471
87 | CC1=NN(Cc2ccccc2)C(=O)C1C(c1ccccc1)C(C#N)C#N (stereo not drawn) | -0.147
88 | O=C(CCCN1C(=O)C2CCCCN2C1=O)N1CCN(c2ccc([N+](=O)[O-])cc2)CC1 (stereo not drawn) | 0.169

Row | SMILES | z-score
89 | COc1ccc(CCN(Cc2cc3cc(C)cc(C)c3nc2Cl)C(=O)C2CC2)cc1 | 0.324
90 | CCOC(=O)Nc1ccc2c(c1)N(C(=O)CCN1CCOCC1)c1ccccc1S2=O (stereo not drawn) | -0.405
91 | Cc1cc(NC(=O)CSc2nnc(-c3cccnc3)n2C2CCCCC2C)no1 (stereo not drawn) | 0.291
92 | CCCCNC(=O)NS(=O)(=O)c1ccc(NS(=O)(=O)c2ccccc2)cc1 | -0.028
93 | CCOC(=O)c1sc(C)c(C(=O)NCC(C)(C)CN(C)C)c1N | 0.753
94 | COc1cc(/C=N/Nc2ccc3ccccc3c2)ccc1OC(=O)c1ccco1 | -0.378
95 | O=C(/C=C/c1ccccc1)Nc1ncn[nH]1 | -0.388
96 | CCCc1ccc(Oc2cc(N3CCOCC3)nc(-c3ccccc3)n2)cc1 | -0.257
97 | COc1ccc(-n2nc3c(c2NC(=O)c2ccc(Br)cc2)CS(=O)C3)cc1 (stereo not drawn) | -0.0829
98 | c1ccc2c(CSCc3nc4ccccc4[nH]3)cccc2c1 | -0.202
99 | CCc1nc(N2CCCC(C)C2)c2oc3ccccc3c2n1 (stereo not drawn) | 0.0468
100 | CC1=CC(c2ccccc2)=Nc2ccc(C)cc2N1 | -0.179
101 | Clc1ccc(/C=N/NC2=Nc3cccc4cccc2c34)cc1 | 0.161
102 | Nc1nc(SCc2ccccc2Cl)n[nH]1 | 0.109
103 | Cc1ccc(S(=O)(=O)N2CCSC2c2ccco2)cc1 (stereo not drawn) | -0.143
104 | O=c1c(Cl)c(N/N=C/c2ccc(Br)cc2)cnn1-c1ccccc1 | -0.0885
105 | O=C(CSc1nnc(-c2ccncc2)o1)NCc1ccc(Cl)cc1 | -0.143
106 | COc1cc(/C=N/NC(=O)CCc2ccccc2)ccc1O | 0.127
107 | O=C(Cn1c(=O)oc2ccccc21)NCc1ccco1 | 0.455
108 | CN(C)c1oc(-c2ccccc2Cl)nc1P(=O)(c1ccccc1)c1ccccc1 | -0.353
